Reference: the RNAGym collection of RNA variant scans (doi:10.7554/elife.90254)
Read counts are not given, so values of variants with three or more changes are uncertain.

B1: LINE1-mini (parent)
chain: GGCAGAGCUCAACACAGCGUGGCAAAGUGGCUGUGGCUAGACUGCC

Variants of: B1
Assay: self-cleavage, relative activity (ratio to wild type); higher = more cleavage; in vitro, sequencing; the parent is a self-cleaving ribozyme
Work on A16C U20A C42U yielded a self-cleavage of 0.08.
A16G G35A C37U showed a self-cleavage of 0.02.
For A16U C31U G33U, the self-cleavage was 0.03.
In the case of A16G G17A C18U G36A, the self-cleavage is reported as 0.01.
Variant A16U G17C G35U A39C has a self-cleavage of 0.03.
Work on A16U A26C G30C U38C yielded a self-cleavage of 0.19.
In the case of A16C C23U U28G G30C, the self-cleavage is reported as 0.02.
In the case of A16C C18U C31G, the self-cleavage is reported as 0.01.
In the case of A16C C18U G22A A25C, the self-cleavage is reported as 0.02.
Work on A16C G17A A24U A26C yielded a self-cleavage of 0.02.
A16C G44A C45A showed a self-cleavage of 0.1.
For A16U C37U C46U, the self-cleavage was 0.05.
A16U A24U C31A A39U gave a self-cleavage of 0.03.
Work on A16U A25C G29A G35C C42G yielded a self-cleavage of 0.05.
With A16C C18U G19A A26G U32G the self-cleavage was 0.5.
A16C U20A G27A A41G showed a self-cleavage of 0.04.
In the case of A16G G21C C23A C42G, the self-cleavage is reported as 0.
Variant A16C G30C C46G has a self-cleavage of 0.07.
In the case of A16U C18A U20A U32G C37A, the self-cleavage is reported as 0.03.
A16C G17U G33U G40C G44U gave a self-cleavage of 0.06.
A16G G19A A25G gave a self-cleavage of 0.11.
For A16U G19A A24G, the self-cleavage was 0.01.
In the case of A16G G22U G27C, the self-cleavage is reported as 0.39.
In the case of A16C G22U C46G, the self-cleavage is reported as 0.07.
Work on A16U C18A A26U G44A yielded a self-cleavage of 0.02.
A16U C18U A41C C46G gave a self-cleavage of 0.01.
Work on A16C C18U U34C yielded a self-cleavage of 0.05.
Variant A16U C37G G44C has a self-cleavage of 0.04.
For A16G G30C C46A, the self-cleavage was 0.04.
With A16G C18U U28A C31G G33C the self-cleavage was 0.02.
Variant A16G C18G C46U has a self-cleavage of 0.04.
A16G G22U U32A A39C gave a self-cleavage of 0.01.
A16U C31U G35A A41C showed a self-cleavage of 0.02.
Variant A16G G22A G30U has a self-cleavage of 0.2.
Work on A16U G17C C23A G29A yielded a self-cleavage of 0.15.
A16C C23G C31A showed a self-cleavage of 0.02.
A16C G21A G40C gave a self-cleavage of 0.02.
A16C G33C U38C gave a self-cleavage of 0.
Work on A16G G33A G36U yielded a self-cleavage of 0.03.
For A16C C23U A25C C31A G35C, the self-cleavage was 0.03.
For A16G C23U U28A, the self-cleavage was 0.84.
A16C G21U U32G A41C showed a self-cleavage of 0.03.
A16U G17U A24U G29C G30U showed a self-cleavage of 0.13.
In the case of A16G U20A A25G C37A A39C, the self-cleavage is reported as 0.
A16U A25C A26C C45U showed a self-cleavage of 0.06.
In the case of C15U U20G G40A A41C, the self-cleavage is reported as 0.06.
Variant A16C U28C U34G C45A has a self-cleavage of 0.02.
A16C G22A G44C gave a self-cleavage of 0.01.
A16U A26U G35C showed a self-cleavage of 0.22.
For A16C A25G A39C, the self-cleavage was 0.14.
A16G A25U G30U gave a self-cleavage of 0.21.
Variant A16U G17A A39U C46A has a self-cleavage of 0.01.
In the case of A16C C18G G36A, the self-cleavage is reported as 0.14.
With A16G G27A G35U the self-cleavage was 0.29.
A16U A26G U28G gave a self-cleavage of 0.03.
A16C G22U A24C C31A G36U C45G gave a self-cleavage of 0.03.
For A16G U32C G35C C46U, the self-cleavage was 0.03.
A16G C23G G30U G40U gave a self-cleavage of 0.
With A16G A24U G30C C46A the self-cleavage was 0.19.
With A16U C18U A41C the self-cleavage was 0.07.
With A16C G22A C23U the self-cleavage was 0.13.
A16U C18A G19C gave a self-cleavage of 0.07.
In the case of A16G U32A U34A, the self-cleavage is reported as 0.01.
A16G G19U C37U gave a self-cleavage of 0.
Work on A16C G30U C45G yielded a self-cleavage of 0.01.
For A16G U20C U28A G36C, the self-cleavage was 0.01.
A16G G35U G40A C42U showed a self-cleavage of 0.09.
Work on A16G U20A G27U G36A G40C A41U yielded a self-cleavage of 0.01.
A16U G19A G36C gave a self-cleavage of 0.16.
A16C G19A U28G showed a self-cleavage of 0.04.
In the case of A16G C23A A24G A26G C42A, the self-cleavage is reported as 0.
With A16C G29U C31A the self-cleavage was 0.13.
With A16C G29A G30A the self-cleavage was 0.05.
In the case of A16C C23G A39U, the self-cleavage is reported as 0.02.
With A16G C18A A25G the self-cleavage was 0.04.
C15U U32G G36A U38C gave a self-cleavage of 0.28.
For C15U U32G G40A C46U, the self-cleavage was 0.04.
A16C G29U U32G C42A C45G showed a self-cleavage of 0.03.
A16U G19A A25G gave a self-cleavage of 0.01.
With A16G U20A C23U A25G the self-cleavage was 0.05.
Variant A16G C31U U38C G44U has a self-cleavage of 0.03.
For C15U U34G C45G, the self-cleavage was 0.04.
Variant A16C A39G A41C has a self-cleavage of 0.01.
Work on A16G G40U C42G yielded a self-cleavage of 0.02.
